PubChem BioAssay AID651820 (National Center for Advancing Translational Sciences (NCATS), 2012)
Screen size: about 340,000 compounds; about 12,000 (3.5%) were called active. Inconclusive means that the source gave no clear call. Such entries were picked first, then a sample of the others. Calls follow the shape of the dose curve; as a rule, active = well fitted inhibition curve with a large enough effect; inconclusive = small, poorly fitted or top-dose-only effect, or another doubt; inactive = no such curve, though single readings can be large or run the other way. Potencies of inconclusive entries are left out as doubtful fits.
% is scaled to controls: 0 for no effect and ±100 for the full control effect; potency is read from the fitted curve at half-maximal effect; tags tell the direction and shape of the fitted curve.

Experiment: qHTS Assay for Inhibitors of Hepatitis C Virus (HCV)
Settings: Huh7.5.1 HCVcc-Cre (HCVcc is cell-culture hepatitis C virus) infection, luciferase reporter, 44 h; activity change, negative = inhibition: at 41.8 µM (top of the series)
How it was run: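 Cells seeded at 1,000/well and cultured 4 h, then compounds added followed by HCVcc-Cre virus (~0.5 moi). After 44 h further culture, luciferase substrate was added, plates held 15 min at room temperature, and luminescence read for 15 sec.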
For C#CCN1c2ccccc2Sc2cccnc21, the Potency was inconclusive [inhibitor, partial curve]. For Cc1ccccc1C(=O)NCCn1cc(SCC(=O)NCC2CCCO2)c2ccccc21 (stereo not drawn), the Potency was inconclusive [inhibitor, single point]. With Clc1ccc(-c2csc(N/N=C/c3cccnc3)n2)c(Cl)c1 the Potency was inconclusive [inhibitor, partial curve]. With O=C(c1cc(-c2ccncc2)nc2ccccc12)N1CCN(Cc2ccccc2)CC1 the Potency was inconclusive [inhibitor, single point]. With COc1ccc(OC)c2sc(N3CCCCC3)nc12 the Potency was active: 12.6 µM. In the case of COc1ccc(NC(=O)c2cccnc2Nc2ccc(OC)cc2)cc1, the Potency is reported as inconclusive [inhibitor, single point]. In the case of Cc1sc2ncnc(NCc3cccs3)c2c1C, the Potency is reported as active: 10 µM. With Cc1ccc(C(=O)Nc2cccc(-c3ccc(N4CCOCC4)nn3)c2)cc1[N+](=O)[O-] the Potency was inconclusive [inhibitor, single point]. For COc1ccc2c(c1)CC/C(=C\c1ccc(OC)c(Cn3cccn3)c1)C2=O, the Potency was inconclusive [inhibitor, single point]. With O=c1c2oc3ccccc3c2[nH]c(=S)n1-c1ccccc1 the Potency was “inactive”. With COc1ccc(NC(=O)/C(C#N)=C/c2c(C)nn(-c3ccc(F)cc3)c2Cl)cc1Cl the Potency was “inactive”. In the case of COc1ccc(Cl)cc1NC(=O)CN(C)Cc1ccc(OC)c(OC)c1, the Potency is reported as inconclusive [inhibitor, partial curve]. For CCCn1c2c(c(O)c(C(=O)Nc3ccccc3)c1=O)CCCC2, the Potency was active: 10 µM. With Cc1ccc(CSCc2ccc(C(=O)O)o2)cc1 the Potency was “inactive”. For O=C(CSc1nnc(CNC(=O)C23CC4CC(CC(C4)C2)C3)n1-c1ccccc1)Nc1ccc(F)cc1, the Potency was inconclusive [inhibitor, single point]. In the case of Cc1ccc(C(=O)N2CCN(c3ccccn3)CC2)cc1[N+](=O)[O-], the Potency is reported as “inactive”. For C[C@H](OC(=O)c1[nH]cnc1C(=O)N1CCN(C(=O)OC(C)(C)C)CC1)c1ccccc1, the Potency was inconclusive [inhibitor, partial curve]. In the case of COCCCNC(=O)c1ccc2c3c(onc13)-c1ccccc1C2=O, the Potency is reported as inconclusive [inhibitor, single point]. With Nc1nc(NCCCN2CCOCC2)nc(Nc2ccc(Cl)cc2)c1[N+](=O)[O-] the activity change, negative = inhibition was inconclusive: -39.5% [inhibitor]. In the case of O=C(NN=Cc1ccc(N(CCCl)CCCl)cc1)C(=O)c1c[nH]c2ccccc12, the Potency is reported as inconclusive [inhibitor, partial curve]. In the case of COc1cccc(NC(=O)CSc2nc3ccccc3c(=O)n2Cc2cccs2)c1, the Potency is reported as inconclusive [inhibitor, partial curve]. With COc1ccc(/C=C\C(=O)O[C@@H]2C(O)C(O[C@@H]3OC(C)[C@H](O[C@@H]4OCC(O[C@H]5O[C@H](CO)[C@@H](O)C(O)C5O)C(O)C4O)C(O)C3O)[C@H](OC(=O)[C@]34CCC(C)(C)C[C@@H]3C3=CCC5[C@@]6(C)CC(O)C(O[C@@H]7OC(CO)C(O)[C@H](O)[C@H]7O)[C@@](C)(C(=O)O)C6CC[C@@]5(C)[C@]3(CO)CC4)O[C@H]2C)cc1 (stereo partly drawn) the Potency was inconclusive [inhibitor, full curve]. With O=c1[nH]c(/C=C/c2ccccc2F)nc2ccccc12 the Potency was “inactive”. For Cc1cc(C)cc(C(=O)NCC(=O)NNC(=O)CSc2ccccc2F)c1, the Potency was inconclusive [inhibitor, single point]. In the case of COc1ccc(C)cc1NC(=O)c1ccc(OCc2c(C)noc2C)cc1, the Potency is reported as inconclusive [inhibitor, partial curve]. With CCOc1ccc2nc(SCC(=O)NC(=O)NCc3ccco3)sc2c1 the Potency was inconclusive [inhibitor, partial curve]. For N#C/C(=N\Nc1cccc(C(F)(F)F)c1)C(=O)c1ccsc1, the Potency was inconclusive [inhibitor, single point]. In the case of O=C(c1ccc2c(=O)n(Cc3ccc4c(c3)OCO4)c(=S)[nH]c2c1)N1CCCCC1, the Potency is reported as “inactive”. With CC1CCCN(CCCNC(=O)C2CC(=O)N(CCc3ccccc3)C2)C1 (stereo not drawn) the Potency was “inactive”. In the case of CCCCNC(=O)[C@@H]1CC=C[C@@H]2CCN(C3CC3)C(=O)[C@@H]21, the Potency is reported as “inactive”. With COc1ccc(-c2[nH]ncc2-c2ccc3c(c2)OCCO3)c(O)c1 the Potency was inconclusive [inhibitor, single point]. In the case of CCn1ncc(Br)c1C(=O)Nc1ccc(C(=O)OC(C)C)cc1, the Potency is reported as inconclusive [inhibitor, partial curve]. With CCC(=O)Nc1cccc(-c2nc3ccc(C)cc3o2)c1 the Potency was inconclusive [inhibitor, partial curve]. With COc1cccc(C(=O)NC(C)c2ccc(-c3ccccc3)cc2)c1OC (stereo not drawn) the Potency was inconclusive [inhibitor, single point]. In the case of Cc1cccc(/C=N/c2sc3c(c2C(=O)OC(C)(C)C)CCN(C)C3)c1O, the Potency is reported as inconclusive [inhibitor, partial curve]. For O=C(c1ccc(=O)n(Cc2ccccc2)n1)N1CCN(C/C=C/c2ccccc2)CC1, the Potency was inconclusive [inhibitor, single point]. In the case of CCn1c(SCC(=O)Nc2ccccc2)nc2nc3c(cc2c1=O)COC(C)(C)C3, the Potency is reported as inconclusive [inhibitor, single point]. With Oc1cccc2c3c(oc12)CCCC3 the Potency was inconclusive [inhibitor, single point]. For CCCCOc1ncnc2c1[nH]c1ccccc12, the Potency was active: 4.47 µM. With COc1ccc(NC(=O)O/N=C/c2ccc(N(C)C)cc2)cc1 the Potency was inconclusive [inhibitor, partial curve]. For CCc1ccccc1NC(=O)C1CCN(S(=O)(=O)c2ccc3c(c2)N(C(C)=O)CCO3)CC1, the Potency was inconclusive [inhibitor, single point]. In the case of Cc1cccc(OCCC(=O)Nc2ccc(F)c(F)c2)c1, the Potency is reported as “inactive”. For Cc1ccc(OCC(=O)Nc2ccc3c(c2)nc(CCN2CCCCC2)n3C)cc1, the Potency was “inactive”. For Cc1c(C)c2ccc(OC(C)C(=O)NC3CCN(Cc4ccccc4)CC3)cc2oc1=O (stereo not drawn), the Potency was inconclusive [inhibitor, single point]. For Cc1csc(SCCn2c(N3CCN(c4ccccc4)CC3)nc3c2c(=O)[nH]c(=O)n3C)n1, the Potency was inconclusive [inhibitor, single point]. For Cc1csc(NC(=O)CSc2nnc(-c3cc(C)on3)o2)n1, the Potency was “inactive”. For CN(CC(=O)Nc1cccc(F)c1)C(=O)c1cccnc1Sc1ccccc1, the Potency was inconclusive [inhibitor, single point]. With Cc1ccccc1-c1nc(CN2CCCC(C(=O)NCc3cccnc3)C2)c(C)o1 (stereo not drawn) the Potency was inconclusive [inhibitor, single point]. For Cc1ccc(NC(=O)Cn2nc(-c3ccccc3Cl)ccc2=O)c(Br)c1, the Potency was inconclusive [inhibitor, single point]. With CCOc1ccc(CCNC(=O)c2ccc(CNS(=O)(=O)c3ccccc3)cc2)cc1OCC the Potency was inconclusive [inhibitor, partial curve]. With O=S(=O)(CCNC1CC1)NC1CCCCC1 the Potency was “inactive”. For O=C(O[C@@H]1OC2COC(=O)c3cc(O)c(O)c(O)c3-c3c(cc(O)c(O)c3O)C(=O)O[C@@H]([C@H]1O)[C@@H]2O)c1cc(O)c(O)c(O)c1, the Potency was inconclusive [inhibitor, partial curve]. In the case of Cc1cc(Cl)cc(Br)c1OCCCN1C(=O)NC(C)(C)C1=O, the Potency is reported as “inactive”. In the case of CCOc1cccc2sc(N(CCN(C)C)C(=O)c3cc4ccccc4cc3OC)nc12, the Potency is reported as active: 14.1 µM. For O=C(CO/N=C/c1ccc(OC(F)F)cc1)N1CCc2ccccc21, the Potency was “inactive”. With Cc1ccc(Nc2nnc(-c3ccncc3)s2)c(Br)c1 the Potency was inconclusive [inhibitor, single point]. With COc1ccc(C(=O)Nc2ccc(Cl)cc2C(=O)N2CCOCC2)cc1 the Potency was “inactive”. In the case of C/C(N)=C(/C#N)C(=O)CSc1nnc(Nc2ccccc2C)s1, the Potency is reported as inconclusive [inhibitor, single point]. With Cc1ccc([N+](=O)[O-])c(OCC(=O)OCC(=O)c2ccccc2)c1 the Potency was “inactive”. With COc1cccc(/C=N/NC(N)=S)c1OCc1cccc(Cl)c1 the Potency was inconclusive [inhibitor, partial curve]. With COc1ccc(C2CC(c3ccccc3)=NN2C(=O)COC(=O)C2(C)CC2(Cl)Cl)cc1 (stereo not drawn) the Potency was inconclusive [inhibitor, single point]. With CO/N=C(\Cn1ncc(NC2CCCCC2)c(Br)c1=O)c1ccc(Cl)cc1 the Potency was inconclusive [inhibitor, single point]. In the case of Cc1ccc(-c2noc(CCCC(=O)Nc3cccnc3)n2)cc1, the Potency is reported as “inactive”. With CCCC(C(=O)NC1CCCC1)N(Cc1cccs1)C(=O)c1snc(C(N)=O)c1N (stereo not drawn) the Potency was inconclusive [inhibitor, single point]. In the case of COc1cc(C(=O)N2CCN(c3ncnc4sc(C)c(C)c34)CC2)cc(OC)c1OC, the Potency is reported as active: 5.62 µM. With C#CCNC(=O)C1=C[C@@H](C(C)(C)C)C[C@@H](OCc2ccc(CO)cc2)O1 the Potency was “inactive”. For COc1ccccc1CCC(=O)NNC(=O)c1ccc(Br)cc1, the Potency was “inactive”. For CN(Cc1cccc2cnccc12)C(=O)c1cc(COc2ccc(F)cc2Cl)on1, the Potency was active: 10 µM.
